# From PubChem BioAssay AID1508642 (National Center for Advancing Translational Sciences (NCATS), 2021)
# Hit rate of the full screen: of about 43,000 compounds, about 200 (0.47%) were called active. Another 12% or so got no clear call; they are omitted. Calls follow the shape of the dose curve; as a rule, active = well fitted cell-killing curve with a large enough effect; inconclusive = small, poorly fitted or top-dose-only effect, or effect the other way; inactive = flat fitted curve, though single readings scatter. The list shows a part of the results.
# Test: Cell viability qHTS assay in S16 Pmp22-F2sN cells; also: nearly all actives have a fitted effect of over 65% in size
# Details: S16 Pmp22-F2sN Schwann cells viability, CellTiter-Glo, 24 h; series mostly up to 57.5 µM; activity change, negative = cytotoxicity: at the top concentration
# Outline: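 S16 Pmp22-F2sN Schwann cells (500-1,000/well) in phenol-red-free DMEM with 10% FBS received 23 nL compound by pin tool for 24 h at 37 °C. Viability was then read as CellTiter-Glo luminescence after 15 min at room temperature.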
# % is scaled to controls: 0 for no effect and ±100 for the full control effect.
row,Structure (SMILES),"activity change, negative = cytotoxicity"
1,COc1ccccc1NC(=O)C1=C(C)Nc2nc3ccccc3n2C1c1ccccc1Cl (stereo unspecified),inactive: 21.7%
2,COc1ccc(Cl)cc1Nc1ccc2cc(S(=O)(=O)N3CCCCC3)ccc2n1,inactive: -25.9%
3,CCC(=O)N1CCc2cc(S(=O)(=O)NCc3ccc(C)cc3)ccc21,inactive: 0.482%
4,COc1ccc(-c2nc3sc(CCNC(=O)Cc4ccccc4)c(C)n3n2)cc1,inactive: 4.38%
5,COc1ccc(C)cc1NC(=O)c1nnn(Cc2cccc(Br)c2)c1N,inactive: -6.63%
6,COc1ccc(C2=NS(=O)(=O)N(C)C(C(=O)NC(C)c3ccccc3)=C2)cc1 (stereo unspecified),inactive: 0.462%
7,COc1ccc(CNC(=O)c2cnc(N3CCCC3)nc2C)c(OC)c1,inactive: -1.14%
8,CCOC(=O)c1cnc2ccc(OC)cc2c1Nc1ccc(OCc2ccccc2Cl)cc1,inactive: -12.6%
9,Cc1ccc(NC(=O)CCC(=O)N2Cc3ccccc3Oc3ncccc32)cc1Cl,inactive: 3.75%
10,COc1ccccc1CNC(=O)C(NS(=O)(=O)c1ccc2c(c1)CCN2C(C)=O)C(C)C (stereo unspecified),inactive: -2.23%
11,CCc1ccc(C(=O)c2cn(CC(=O)Nc3cc(OC)ccc3OC)c3ccc(Cl)cc3c2=O)cc1,inactive: 12.3%
12,Cc1ccc2oc(C(=O)Nc3ccc(S(=O)(=O)N4CCCCC4C)cc3)cc(=O)c2c1 (stereo unspecified),inactive: 2.45%
13,CCN(CC)S(=O)(=O)c1ccc2c(c1)N(CC(=O)NCCCN1CCN(c3ccc(OC)cc3)CC1)C(=O)CO2,inactive: -0.577%
14,CCCS(=O)(=O)N1CCC(n2c(C)nc3cccnc32)CC1,inactive: 6.8%
15,CCN(C(=O)CSc1nc2ccccc2n1CC(=O)N(C)C1CCCCC1)c1ccccc1,inactive: 16.1%
16,CCOC(=O)c1cc(-c2ccccc2)n(CCC(=O)NCCc2ccccc2)c1C,inactive: -24%
17,CCOC(=O)c1cnc2c(ccc3ccccc32)c1Nc1cccc(Cl)c1,inactive: 3.76%
18,COc1ccc(CCNC(=O)c2cnc3sc(N4CCOCC4)nn3c2=O)cc1,inactive: -2.07%
19,CCc1c(C)sc2c1CCN(Cc1ccccc1C#N)C2c1ccccc1 (stereo unspecified),inactive: -29.7%
20,CCOc1ccc(CNC(=O)C2CCN(c3nc4ccccc4nc3C(F)(F)F)CC2)cc1OC,inactive: 2.84%
21,CC1CCN(c2oc(-c3cccs3)nc2S(=O)(=O)c2ccccc2)CC1,inactive: 0.432%
22,COc1ccc(-n2nc3ccc(NC(=O)c4cccc(OCCC(C)C)c4)cc3n2)cc1,inactive: 19%
23,Cc1nn(C)c2c1c(-c1ccccc1)cc(=O)n2Cc1ccc(F)cc1,inactive: 16.7%
24,Cc1ccc2c(c1)cc1c(=O)n(Cc3ccc(Cl)cc3)nc(C)n12,inactive: 10.3%

row,Structure (SMILES),"activity change, negative = cytotoxicity"
1,COc1cccc(-c2cc(C(=O)Nc3ccc(Br)c(C)c3)[nH]n2)c1,inactive: -1.51%
2,COc1ccc(-n2c(=O)c3ccc(C(=O)NCc4ccc(C)cc4)cc3n(Cc3cccc(Cl)c3)c2=O)cc1,inactive: -8.92%
3,CC1CCCCN1S(=O)(=O)c1cc2c(=O)nc3ccccn3c2cc1Cl (stereo unspecified),inactive: -0.823%
4,CCOc1ccc(C2C(C(=O)Nc3ccccc3OC)=C(C)Nc3c(C(=O)Nc4cccc(C)c4)cnn32)cc1 (stereo unspecified),inactive: -1.01%
5,O=C1CC(c2nnc(Cc3cccc(Cl)c3)o2)CN1c1ccccc1 (stereo unspecified),inactive: -11.2%
6,Cc1cccc(C)c1NS(=O)(=O)c1ccc2c(c1)[C@H]1C=CC[C@H]1[C@@H](c1ccc(Cl)cc1)N2,inactive: -14.1%
7,CCn1c(CC2C(=O)Nc3ccccc32)nc2ccccc2c1=O (stereo unspecified),inactive: 4.25%
8,COc1ccc(CN(Cc2ccco2)C(=O)c2ccccc2F)cc1,inactive: -0.0399%
9,Cc1ccccc1Cn1c2ccccc2c2cnn(CC(=O)NCCCc3ccccc3)c(=O)c21,inactive: 17.5%
10,COc1cccc(Cc2nc3ccccc3nc2SCC(=O)N2CCN(c3ccccc3)CC2)c1,inactive: -1.06%
11,O=C(Cn1c(-c2cccs2)cc2cc(F)ccc21)N1CCN(c2cccc(Cl)c2)CC1,inactive: -0.659%
12,O=C(Nc1cc(-c2nc3ccccc3o2)ccc1Cl)c1ccc(Br)o1,inactive: 9.07%
13,Cc1c(C(=O)NCc2ccccc2)sc2nc[nH]c(=O)c12,inactive: -0.36%
14,Cc1ccc(CCNc2nc3c(S(=O)(=O)c4ccccc4)nnn3c3ccsc23)cc1,inactive: 4.46%
15,COc1cc(-c2noc(-c3ccc(N(C)C)c([N+](=O)[O-])c3)n2)cc(OC)c1OC,inactive: -9.55%
16,CCOc1ccc(Nc2sc(C(=O)c3ccc4c(c3)OCO4)c(N)c2S(=O)(=O)c2ccc(C)cc2)cc1,inactive: -0.476%
17,Cn1nc(C(=O)N2CCN(c3ccc(Cl)cc3)CC2)c2c1-c1ccccc1S(=O)(=O)C2,inactive: -20.9%
18,COc1ccc(-c2cc(C(F)(F)F)nc(NCc3ccc(Cl)cc3)n2)cc1,inactive: 0.209%
19,COc1ccccc1CNC(=O)CSc1cc(=O)n(C)c2ccccc12,inactive: -28.6%
20,CC(=O)Nc1ccc(S(=O)(=O)NC2(C(F)(F)F)NC(=O)N(c3ccccc3F)C2=O)cc1 (stereo unspecified),inactive: 1.8%
21,CCC1CN(C(=O)Nc2cccc(OC)c2)c2ccccc2O1 (stereo unspecified),inactive: -4.1%
22,COc1ccc2c(c1)c1c(c(=O)n(-c3ccc(F)c(Cl)c3)c(=O)n1CC(N)=O)n2C,inactive: 2.81%
23,CCOc1ccc(-c2c(C)nn3c(C)c(C(=O)NCCc4ccccc4)cnc23)cc1OCC,inactive: 1.13%
24,COc1cccc2c1cc1c(=O)n(CC(=O)O)nc(C)n12,inactive: 6.22%

row,Structure (SMILES),"activity change, negative = cytotoxicity"
1,Cc1ccc(-c2cn3c(n2)sc2cc(C(=O)NC4CCCc5ccccc54)ccc23)cc1 (stereo unspecified),inactive: 2.27%
2,CCOCCCNC(=O)C1CCN(c2cc(C)nc3c(-c4ccc(Cl)cc4)c(C)nn23)CC1,inactive: 0.173%
3,CCc1ccc(NCc2cc3cc4c(cc3n(CC(=O)Nc3ccccc3Cl)c2=O)OCO4)cc1,inactive: -24.4%
4,CCOc1ccc(-n2c(=O)c3c4c(sc3n(Cc3cccc(C)c3)c2=O)CCCC4)cc1,inactive: 7.65%
5,Clc1ccc2nc(Nc3ccccc3Cl)nc(-c3ccccc3)c2c1,inactive: 2.9%
6,COc1ccc(NC(=O)Cn2c(=O)n(CC(=O)NCCc3ccccc3)c(=O)c3ccccc32)cc1,inactive: -4.73%
7,COc1ccc(CNC(=O)c2cc3c(-c4ccccc4F)nn(C)c3s2)cc1,inactive: -13.3%
8,COc1ccc(OC)c(NC(=O)c2c(NCc3ccc(OC)c(OC)c3)sc3c2CCC3)c1,inactive: 16.1%
9,O=C(Nc1ccc(Br)cc1F)C(NS(=O)(=O)c1cccc2nsnc12)c1ccccc1 (stereo unspecified),inactive: 1.17%
10,Cc1ccc(NC(=O)c2cc3c(-c4ccccc4)nn(-c4ccccc4)c3s2)cc1,inactive: 4.9%
11,CCN(C(=O)CSc1nnc(-c2cc3occc3n2C)n1-c1ccccc1C)c1cccc(C)c1,inactive: 2.48%
12,CCOc1ccccc1NC(=O)Cn1c(=O)n(-c2ccccc2)c(=O)c2c1c1cc(C)ccc1n2C,inactive: 5.17%
13,Cc1nn(CCCC(=O)Nc2cc(C(F)(F)F)ccc2Cl)c(=O)c2c1sc1ccccc12,inactive: 1.87%
14,CCc1nn(CC(=O)N(CC)Cc2ccccc2)c(=O)c2cc3occc3n12,inactive: 6.29%
15,CCN(CC)C(=O)c1cnn(-c2ccc(F)cc2)c1-n1cccc1,inactive: 2.28%
16,CCNC(=O)c1c(C)oc2ncn(C)c(=O)c12,inactive: -6.15%
17,COc1ccc(-c2c(C#N)c(SCC(=O)Nc3ccc(Br)cc3)nc(C)c2C(=O)Nc2ccccc2)cc1,inactive: -1.68%
18,COC(=O)c1ccccc1NC(=O)c1cc2c(s1)-c1ccccc1OC2,inactive: -15.2%
19,Cc1cc(C)c(S(=O)(=O)NCCc2cc3ccc(C)cc3[nH]c2=O)c(C)c1,inactive: 15.4%
20,CC1=C(C(=O)N2CCCCC2)C(c2cccc(Cl)c2)n2c(nc3ccccc32)N1 (stereo unspecified),inactive: 15.6%
21,O=C(CSc1nc(-c2ccccc2)c2ccccc2n1)Nc1ccc(F)cc1,inactive: 2.61%
22,COc1ccc(NC(=O)COc2ccc(S(=O)(=O)NC3CCCCC3)cc2)c(OC)c1,inactive: 24.9%
23,O=C(CCCc1nc(-c2ccccc2)no1)Nc1cc(C(F)(F)F)cc(C(F)(F)F)c1,inactive: 4.9%
24,Cc1ccc(CNC(=O)Cn2cc(S(=O)(=O)Cc3cccc(Cl)c3)c3ccccc32)cc1,inactive: 0.622%

row,Structure (SMILES),"activity change, negative = cytotoxicity"
1,COc1ccc(-c2nc3nc(C)cc(Nc4cccc(C(F)(F)F)c4)n3n2)cc1,inactive: 4.9%
2,CCOc1ccc(NC(=O)c2cc(S(=O)(=O)N3CCCC3)c[nH]2)cc1,inactive: -3.58%
3,CC1=C(C(=O)Nc2ccccc2C)C(c2ccco2)n2ncnc2N1 (stereo unspecified),inactive: 14.8%
4,Cc1sc(-n2cccc2)c(C(C)NC(=O)Nc2ccccc2Cl)c1C (stereo unspecified),inactive: -10%
5,Cc1noc(Cn2c(=O)c3ccccc3n(CC(=O)Nc3ccc(F)cc3F)c2=O)n1,inactive: -17.8%
6,O=C(Nc1nnc(S(=O)(=O)N2CCCCC2)s1)c1ccc(F)cc1,inactive: -22%
7,Cc1cc(C)c(Cn2c3ccccc3c3cnn(CC(=O)NCc4ccc(Cl)cc4)c(=O)c32)c(C)c1,inactive: -1.86%
8,COc1ccc(-c2nc3scc(CCNS(=O)(=O)c4ccc(F)c(C(F)(F)F)c4)n3n2)cc1OC,inactive: -19.8%
9,COC(=O)c1scc(-c2ccc(C)cc2)c1S(=O)(=O)Nc1cccc(Cl)c1C,inactive: 10.4%
10,Cc1ccc(OCCn2cc(C(=O)c3ccco3)c3ccccc32)cc1C,inactive: -29.5%
11,Cc1ccc(NC(=O)c2cnc(N3CCCCC3)c3ccccc23)cc1Cl,inactive: -5.27%
12,CCOC(=O)c1sc(NC(=O)C(C)Sc2nc(-c3ccccc3)cc(C(F)(F)F)n2)c(C(=O)OC)c1C (stereo unspecified),inactive: 10.5%
13,CCOc1ccc(C(=O)Nc2ccc(-c3nc4cc(C)ccc4o3)cc2)cc1,inactive: -2.39%
14,O=C(CCCCn1c(=O)c2ccccc2n(CC(=O)Nc2ccccc2)c1=O)NCc1ccccc1Cl,inactive: 10.8%
15,Cc1cccc(N2CCN(S(=O)(=O)c3ccc4oc(=O)c5ncn(C)c5c4c3)CC2)c1C,inactive: -0.814%
16,CCc1nnc2c3ccccc3nc(Nc3ccccc3OC)n12,inactive: -0.441%
17,Cc1c(C)n(Cc2ccccc2)c2ccc(C(=O)NCc3ccc(OC(C)C)cc3)cc12,inactive: 6.01%
18,CCN(CC)CCCNC(=O)C1CCN(S(C)(=O)=O)CC1,inactive: 18%
19,COc1ccc(Nc2nc3ccc(Cl)cc3n3nnnc23)cc1OC,inactive: -6.59%
20,COc1ccc(NC(=O)c2ccc(NC(=O)CCS(=O)(=O)c3cccs3)cc2)cc1OC,inactive: 13.6%
21,CCOC(=O)c1cc(-c2ccccc2)n(CCC(=O)Nc2cc(OCC)ccc2OCC)c1C,inactive: -12.2%
22,CCn1c(NCc2ccc(OC)c(OC)c2)nc2ccccc21,inactive: -13.4%
23,Cc1cccc(NC(=O)CN2C(=O)c3ccccc3Sc3ncccc32)c1C,inactive: 7.25%
24,Cc1cccc(CCNC(=O)C2CCN(c3ncnc4c3nc3n4CCCCC3)CC2)c1,inactive: 2.9%
